# Test results from paper PMC5575113, “Creating the Functional Single-Ring GroEL-GroES Chaperonin Systems via Modulating GroEL-GroES Interaction” (Scientific Reports, 2017).
# B1: GroEL (natural protein)
# chain: not shown
# Biological target: T1, GroES (E. coli, UniProt P0A6F9 1-97, DyLight 650 NHS ester on amines (for MST))
# T1 sequence (looked up): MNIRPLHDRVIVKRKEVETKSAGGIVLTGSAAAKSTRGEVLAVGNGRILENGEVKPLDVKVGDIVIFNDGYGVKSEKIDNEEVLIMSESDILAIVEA
# Experiment: cell-based or functional assay
binder,measurement,value
B1,yield of GroEL-mediated MDH folding (native MDH 100%),~80%
